# Experimental data reported in PubChem BioAssay AID686979 (National Center for Advancing Translational Sciences (NCATS), 2013).
# Screen size: about 420,000 compounds; about 50,000 (12%) were called active. This list was built around the results that the source calls inconclusive (neither active nor inactive); the mix of calls is not that of the screen. Calls follow the shape of the dose curve; as a rule, active = well fitted inhibition curve with a large enough effect; inconclusive = small, poorly fitted or top-dose-only effect; inactive = flat fitted curve, though single readings scatter. No potency is given beside an inconclusive call; the fits are too rough.
# Assay: qHTS for Inhibitors of human tyrosyl-DNA phosphodiesterase 1 (TDP1): qHTS in cells in presence of CPT; also: nearly all actives have a fitted effect of over 55% in size
# Settings: chicken DT40 Tdp1-/-;hTDP1 cells + 20 nM CPT, ATP luminescence, 48 h; activity change, negative = growth inhibition: at 46.2 µM (top of the series)
# Outline: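 Chicken DT40 Tdp1-/- cells stably complemented with human TDP1 were seeded at 400 cells/well in medium containing 20 nM camptothecin, exposed to pin-transferred compounds, and grown at 37 °C for at least 48 hr. Viability was read as ATP luminescence.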
# % is scaled to controls: 0 for no effect and ±100 for the full control effect; potency is read from the fitted curve at half-maximal effect; tags tell the direction and shape of the fitted curve.
SMILES,Potency,"activity change, negative = growth inhibition"
COc1cc(OC)c(C2=NOC(C(=O)NCc3cccnc3)C2)cc1Cl (configuration not stated),"inconclusive [inhibitor, single point]",
c1ccc(-c2cc(-c3ccc(N4CCOCC4)cc3)nc3ccccc23)cc1,inactive,
CC(C)NC(=S)N/N=C/c1cccnc1,"inconclusive [inhibitor, single point]",
COc1ccccc1NC(=O)c1cccc(S(=O)(=O)N2CCN(c3ccccc3)CC2)c1,"inconclusive [inhibitor, partial curve]",
CCOc1ccc(NC(=S)Nc2cc(OC)c(Cl)cc2OC)cc1,active: 14.6 µM,
COc1cc(CCC(=O)OCC(=O)N(CCC#N)c2ccccc2)cc(OC)c1OC,inactive,
COc1ccccc1CNC(=O)c1ccc2nc3[nH]c4ccccc4c3nc2c1,"inconclusive [inhibitor, partial curve, poor fit]",
CCC(CC)C(=O)N1CCN(Cc2ccc3c(c2)OCO3)CC1,"inconclusive [inhibitor, single point]",
COc1ccc2c(ccc[n+]2[O-])c1,inactive,
O=C(C[n+]1cc(-c2ccc(Cl)c(Cl)c2)n2c1CCC2)c1cccs1,active: 10.3 µM,
COc1ccc(CC(=O)n2[nH]c(=O)ccc2=O)cc1OC,"inconclusive [inhibitor, single point]",
COc1ccc(-c2cc(=O)oc3c(C)c(OC(C)C(=O)NCc4ccccn4)ccc23)cc1 (configuration not stated),"inconclusive [inhibitor, single point]",
O=C(c1ccc(Cl)c(S(=O)(=O)N2CCCCCC2)c1)N1CCCCC1,inactive,
COCCN(CC(=O)Nc1ccccc1C(F)(F)F)C(=O)/C=C/c1cc(Cl)c2c(c1)OCO2,"inconclusive [inhibitor, single point]",
COC(=O)c1ccc(NC(=O)CCS(=O)(=O)c2ccc3c(c2)NC(=O)C(C)S3)cc1 (configuration not stated),"inconclusive [inhibitor, single point]",
COc1cccc(NC(=O)C(CCSC)NC(=O)C2CCC(C)CC2)c1 (configuration not stated),inactive,
Cc1ccccc1Nc1nc(N)nc(COC(=O)c2ccccc2)n1,inactive,
O=C(c1cc(COc2ccc(F)cc2Cl)on1)N1CCC(c2ccncc2)CC1,active: 6.51 µM,
O=c1oc2cc(O)ccc2cc1-c1nc2ccccc2o1,,inconclusive: -31.5% [inhibitor]
COc1ccc(CN2CCOCCOCCN(Cc3ccc(OC)cc3)CCOCCOCC2)cc1,"inconclusive [inhibitor, partial curve]",
Cc1cc(C)cc(N(C(=O)c2csnn2)C(C(=O)NC(C)(C)C)c2cccs2)c1 (configuration not stated),,inconclusive: -30.2% [inhibitor]
CC(C)CN(CCCNC(=O)c1cn(C)c2ccc(S(=O)(=O)N(C)C3CCCCC3)cc2c1=O)CC(C)C,inactive,
CC(C)(C)c1ccccc1NC(=O)Cn1cnc2cc([N+](=O)[O-])ccc2c1=O,"inconclusive [inhibitor, single point]",
COc1ccc(CNC(=O)c2cc(C)nc3c2c(C)nn3-c2cccc(Cl)c2C)cc1,"inconclusive [inhibitor, single point]",

SMILES,Potency,"activity change, negative = growth inhibition"
Cc1ccc(S(=O)(=O)N2CCC(C(=O)N3CCC3)CC2)cc1,"inconclusive [inhibitor, single point]",
CCOC(=O)/C=C/c1ccc2oc3ccccc3c(=O)c2c1,"inconclusive [inhibitor, full curve, poor fit]",
COc1cccc(Nc2nc(Nc3ccc(Cl)c(C(=O)O)c3)nc(C)c2[N+](=O)[O-])c1,inactive,
Cc1ccc(-c2nc3ccccc3s2)cc1S(=O)(=O)N1CCCC1,active: 13 µM,
COc1cc(N=Nc2ccc(C)cc2S(N)(=O)=O)c(C)cc1N,inactive,
Cn1c(CCCNC(=O)c2ccccc2)nc2ccccc21,inactive,
Cc1cccc(C)c1Cn1c(C)c(C(=O)NCc2ccc(C#N)cc2)sc1=O,"inconclusive [inhibitor, single point]",
CC1(Cc2ccc3ccccc3n2)C(=O)Nc2ccc(OC(F)(F)F)cc21 (configuration not stated),"inconclusive [inhibitor, single point]",
CSc1cccc(CN2CCC(CO)(Cc3cccc(C(F)(F)F)c3)CC2)c1,"inconclusive [inhibitor, single point]",
COc1ccccc1C(=O)N/N=C(\C)CC(=O)Nc1ccc(Nc2ccccc2)cc1,"inconclusive [inhibitor, single point]",
COc1ccc(C)cc1NC(=O)CC(=O)Nc1ccc2nc3n(c(=O)c2c1)CCCCC3,"inconclusive [inhibitor, single point]",
CC[C@H](CO)Nc1nc(Nc2cccc(Cl)c2)c2ncn(C(C)C)c2n1,active: 9.2 µM,
COc1ccc(-c2cc(C(=O)Nc3ccc(C(N)=O)cc3)c3ccccc3n2)cc1OC,"inconclusive [inhibitor, partial curve]",
Cc1ccc(-c2cc(C(=O)NCCCN3CCOCC3)c3ccccc3n2)cc1,inactive,
COc1ccc(C(=O)OCC(=O)NC2CC2)cc1F,inactive,
COc1ccccc1-c1cc(C(=O)Nc2ccccc2SC)no1,"inconclusive [inhibitor, partial curve]",
CC1=NN(C(=O)Cc2ccccc2)C(O)(c2cccnc2)C1 (configuration not stated),active: 4.61 µM,
CCOc1ccc(C2=CC(c3cc(Br)ccc3F)n3ncnc3N2)cc1Cl (configuration not stated),active: 14.6 µM,
CN(C)Cc1ccccc1-c1ccc2ncnc(N(C)Cc3ccco3)c2c1,"inconclusive [inhibitor, single point]",
CCOc1ccc(S(=O)(=O)N(C(=O)c2ccncc2)c2ccc3oc(C)c(C(=O)OC)c3c2)cc1,active: 1.03 µM,
COCCCNC(=S)N1CCN(c2nc(-c3ccc(Cl)cc3)cs2)CC1,"inconclusive [inhibitor, single point]",
ClCC1NCC(c2ccccc2Cl)c2c1[nH]c1ccccc21 (configuration not stated),inactive,
O=C(Nc1scc(-c2ccccc2)c1C(=O)O)c1ccco1,inactive,
O=S(=O)(Nc1ccc(-n2cccc2)cc1)c1ccc(Cl)c(Cl)c1,"inconclusive [inhibitor, single point]",

SMILES,Potency,"activity change, negative = growth inhibition"
Cc1nn(C)cc1/C=C1\CCC/C(=C\c2cn(C)nc2C)C1=O,active: 15.8 µM,
O=C(Nc1ccc(S(=O)(=O)NCc2ccccc2)cc1)Nc1ccc2c(c1)OCO2,"inconclusive [inhibitor, single point]",
CC(OC(=O)c1cccc(S(=O)(=O)N2CCCCCC2)c1)C(=O)Nc1ccc(S(N)(=O)=O)cc1 (configuration not stated),inactive,
COc1ccc(CNc2ncnc3ccc(-c4ccc5c(c4)OCO5)cc23)c(OC)c1,"inconclusive [inhibitor, single point]",
CC(C)Cn1c(CN2CCCCC2C)nc2c1c(=O)n(C)c(=O)n2C (configuration not stated),"inconclusive [inhibitor, single point]",
CCOC(=O)c1nn(-c2ccc3ccccc3c2)cc1O,,inconclusive: -31.9% [inhibitor]
CCCCCCCCOc1ccc(C2OC34CCCCC3C(C#N)(C#N)C2(C#N)C(=N)O4)cc1 (configuration not stated),"inconclusive [inhibitor, single point]",
O=C(Nc1ccc(N2CCCCC2)c(Cl)c1)c1ccc2c(c1)OCCO2,"inconclusive [inhibitor, single point]",
O=C(c1ccc(S(=O)(=O)Cc2cc(F)ccc2F)c([N+](=O)[O-])c1)N1CCCCC1,"inconclusive [inhibitor, single point]",
CC(=O)Cn1cnc2c(cnn2-c2ccc(F)cc2)c1=O,inactive,
N#CCSc1nc2sc3c(c2c(=O)n1C1CCCCC1)CCCC3,"inconclusive [inhibitor, single point]",
CC1=C/C(=C\c2ccc(N(C)C)cc2)c2ccccc21,"inconclusive [inhibitor, single point]",
Cc1cc(S(=O)(=O)Nc2cccc([N+](=O)[O-])c2)c(C)s1,inactive,
CN(C(=O)CSc1nc2ccccc2n1Cc1cccc(C(F)(F)F)c1)c1ccccc1,active: 18.4 µM,
CC(C)CSc1oc(-c2ccco2)nc1S(=O)(=O)c1ccc(Br)cc1,"inconclusive [inhibitor, single point]",
CC1=Nc2ccc(C)c3nc(C)cc(c23)N1c1ccc(C)cc1,"inconclusive [inhibitor, single point]",
O=C(Cc1cccs1)Nc1ccccc1NC(=O)Cc1cccs1,inactive,
CS(=O)(=O)c1ccccc1-c1nc(-c2cc(C(F)(F)F)cc(C(F)(F)F)c2)no1,"inconclusive [inhibitor, single point]",
COc1cccc(NC(=O)CCN2C(=O)C3CC=CCC3C2=O)c1 (configuration not stated),inactive,
O=C(NC(=O)C(F)(F)F)Nc1ccc(S(=O)(=O)Nc2nccs2)cc1,inactive,
N=C(N)SCc1cccc2c(=O)cc(-c3ccccc3)oc12,active: 4.47 µM,
CCOC(=O)c1ccc(S(=O)(=O)N2CCC(C(=O)O)CC2)cc1,inactive,
CSc1ncccc1C(=O)N1CCCC(Nc2ccc(F)c(F)c2)C1 (configuration not stated),"inconclusive [inhibitor, single point]",
CCC1=C(OC(=O)N(CC)CC)N2C(=O)OC(=NCC(=O)OC)[C@]2(Cc2ccccc2)[C@H]2C1=CC[C@H]1C(=O)N(c3ccccc3)C(=O)[C@H]12,"inconclusive [inhibitor, single point]",
